In PubChem BioAssay AID308 (DTP/NCI, 2004) one finds T/C data, which are given here for two compounds.

Toxic doses and inconclusive results are not listed. Some entries of the source have several records that differ or are many. They are shown here; other results are not. The source may hold further records. The records of an entry repeat one measurement in other runs, samples, wells, individuals or studies.

The subject of the assay is BDF1 mice, L1210 6-MP/6-TG resistant leukemia ip, survival T/C. Kind of assay: NCI In Vivo Anticancer Drug Screen. Data for tumor model L1210 Leukemia resistant to 6-MP and 6-Thioguanine; NSC 755, NSC 752 (intraperitoneal) in B6D2F1 (BDF1) mice. Particulars: endpoint: mean survival time, higher = longer survival. The method, then:
The antitumor activity of compounds was measured in mice bearing transplantable tumors. Survival or tumor size were measured and the results are expressed as the measurement made in the treated group (T) divided by the measurement made in the vehicle treated control group (C). The tumor model used in this assay is L1210 Leukemia resistant to 6-MP and 6-Thioguanine; NSC 755, NSC 752 (intraperitoneal) in B6D2F1 (BDF1) mice

In the case of `O=NN(CCCl)C(=O)NCCCl`, the T/C (dose: 0.5 mg/kg/injection, schedule: Q01DX015 (ip), vehicle: saline) is listed as 103 % of control, 108 % of control, 152 % of control. For `CC(=O)Nc1ccc2nc3ccc(NC(C)=O)cc3[n+](-c3ccccc3)c2c1`, the T/C (dose: 15.0 mg/kg/injection, schedule: Q01DX Z (ip), vehicle: carboxymethylcellulose (CMC)) is 109 % of control and 162 % of control.
